In article PMC6451091:
Some of the results follow. For part of these data: At the low end of the ranking the order means little. For part of these data: The protein was read in a cell extract, so binding may be indirect.

These sequences were tested against PU.1 (IVT) (UniProt P17947) (assay: protein-binding microarray (PBM)). Conditions: 20 mM HEPES pH 7.9, 100 mM NaCl, 1 mM DTT, 0.2 mg/mL BSA, 0.02% Triton X-100, 2% milk, 0.4 mg/mL salmon testes DNA; 1 h; temperature not stated; high values mean tight binding; double strand, one strand shown; sequences stand for … in GCCTAGCAC…GTGCTAGGTCTTGATTCGCTTGACGCTGCTG.
TGAAAGAGGAAGTGTGTTGA gave a binding signal of 7.3 z-score. In the case of AAATTAGGGAAGTGGAAGAA, the binding signal is reported as 6.13 z-score. In the case of TGAAAGAGGAAGTGAGGAAG, the binding signal is reported as 7.36 z-score. With AAGGAGAGGAAGTGACCAGC the binding signal was 4.3 z-score. TTGCTGAGGAAGTGGATGAT was tested, and the binding signal was 2.68 z-score. GGAAAGAGGAACTGAAAAGG gave a binding signal of 6.31 z-score. For GGAAAGTGGAACTGCTCGCT, the binding signal was 2.19 z-score.

The sequences below were run against PU.1 (endogenous, THP-1 nuclear extract) (UniProt P17947) (assay: nuclear extract protein-binding microarray (nextPBM)). Conditions: 20 mM HEPES pH 7.9, 100 mM NaCl, 1 mM DTT, 0.2 mg/mL BSA, 0.02% Triton X-100, 2% milk, 0.4 mg/mL salmon testes DNA; 1 h; temperature not stated; high values mean tight binding; double strand, one strand shown; sequences stand for … in GCCTAGCAC…GTGCTAGGTCTTGATTCGCTTGACGCTGCTG.
In the case of AAAAACAGGAAGTCGCCTCC, the binding signal is reported as 7.26 z-score. With TCTTTGAGGAAGTGAGAAAG the binding signal was 5.58 z-score. AATATGGGGAAGTGGAACAT gave a binding signal of 5.89 z-score. Work on ACGCAGGGGAAGTGGCTCCC yielded a binding signal of 3.03 z-score. For GTAAAAGGGAAGTGCTACAG, the binding signal was 5.9 z-score. Sequence GCCAAGAGGAAGTCTACAAA has a binding signal of 3.49 z-score. Sequence GGGATGGGGAAGTGTCATAC has a binding signal of 4.66 z-score. CAGAAGAGGAAGTTCAGAAG showed a binding signal of 6.72 z-score. Work on TGAAAGAGGAAGTGCAACTA yielded a binding signal of 7.1 z-score. Work on AGAGAGAGGAAGTGAACTCC yielded a binding signal of 5.03 z-score. Work on GATAAGAGGAAGTCGTCTGT yielded a binding signal of 6.57 z-score. CAAGAAAGGAAGTGATGTGA was tested, and the binding signal was 2.42 z-score. ACACAAAGGAACTGTGCCCC showed a binding signal of 0.553 z-score. AGAAAGAGGAACTGAGAAAA showed a binding signal of 6.62 z-score. CGAAAAGGGAAGTGGATGCT was tested, and the binding signal was 6.74 z-score. TAATTGAGGAACTGCAAATG showed a binding signal of 4.67 z-score. CGAACGGGGAAGTGCTAAAC showed a binding signal of 3.01 z-score. For AAAAAGAGGAAGAGGGGACA, the binding signal was 5.94 z-score. Work on ACAGAAAGGAACTGTGCCCC yielded a binding signal of 0.817 z-score. With TATAAGAGGAAGTCCTCTGT the binding signal was 6.27 z-score. In the case of AGAATGAGGAACTGGGAAAG, the binding signal is reported as 5.85 z-score. Work on AGAAAGAGGAAGTCTCTGCC yielded a binding signal of 7.16 z-score. Sequence TTGAAGAGGAAGTCTTAGAG has a binding signal of 4.02 z-score. Work on AGAATGAGGAAATGGACATT yielded a binding signal of 4.67 z-score. For TAAGAAGGGAAGTGAACTAA, the binding signal was 2.87 z-score. GACAAGAGGAACTGCATTCT showed a binding signal of 3.05 z-score. CTAATGAGGAACTGGCCCGA was tested, and the binding signal was 4.29 z-score. Sequence ATTATAAGGAAGTCAAACTG has a binding signal of 3.86 z-score. GAAAAGGGGAACTGGGTGCC gave a binding signal of 6.51 z-score. GTGAAGAGGAAGTACAAAGA was tested, and the binding signal was 5.84 z-score. In the case of GTGAGAAGGAAGTGAATGCA, the binding signal is reported as 2.95 z-score. In the case of TGAAAGGGGAAGTCTTTTTA, the binding signal is reported as 6.82 z-score. AAAAGGAGGAAGCGGTGAGC gave a binding signal of 4.12 z-score. TGAAAGAGGAAGTGTGTTGA showed a binding signal of 7.24 z-score. Work on AAATTAGGGAAGTGGAAGAA yielded a binding signal of 6.48 z-score. TGAAAGAGGAAGTGAGGAAG was tested, and the binding signal was 7.1 z-score. With AAGGAGAGGAAGTGACCAGC the binding signal was 4.17 z-score. With TTGCTGAGGAAGTGGATGAT the binding signal was 2.72 z-score. For GGAAAGAGGAACTGAAAAGG, the binding signal was 6.72 z-score. GGAAAGTGGAACTGCTCGCT was tested, and the binding signal was 1.97 z-score.

What follows are sequences tested against T1, FLI1 (endogenous, THP-1 nuclear extract) (UniProt Q01543) in the same assay as above. Conditions: 20 mM HEPES pH 7.9, 100 mM NaCl, 1 mM DTT, 0.2 mg/mL BSA, 0.02% Triton X-100, 2% milk, 0.4 mg/mL salmon testes DNA; 1 h; temperature not stated; high values mean tight binding; double strand, one strand shown; sequences stand for … in GCCTAGCAC…GTGCTAGGTCTTGATTCGCTTGACGCTGCTG.
T1 sequence: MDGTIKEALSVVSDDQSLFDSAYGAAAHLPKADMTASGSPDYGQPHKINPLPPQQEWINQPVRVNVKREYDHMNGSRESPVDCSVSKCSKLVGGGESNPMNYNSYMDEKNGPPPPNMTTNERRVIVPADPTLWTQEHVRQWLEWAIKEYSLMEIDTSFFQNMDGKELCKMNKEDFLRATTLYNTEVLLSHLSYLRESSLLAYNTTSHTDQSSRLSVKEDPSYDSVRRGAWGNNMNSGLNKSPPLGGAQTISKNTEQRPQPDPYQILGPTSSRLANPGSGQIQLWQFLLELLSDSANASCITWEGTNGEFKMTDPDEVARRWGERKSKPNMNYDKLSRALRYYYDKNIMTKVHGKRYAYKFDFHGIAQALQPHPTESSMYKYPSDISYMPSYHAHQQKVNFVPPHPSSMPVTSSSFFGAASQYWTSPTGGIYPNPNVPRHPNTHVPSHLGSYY
AAAAACAGGAAGTCGCCTCC showed a binding signal of 5.01 z-score. Work on TCTTTGAGGAAGTGAGAAAG yielded a binding signal of 2.31 z-score. AATATGGGGAAGTGGAACAT was tested, and the binding signal was 1.78 z-score. ACGCAGGGGAAGTGGCTCCC showed a binding signal of 1.88 z-score. With GTAAAAGGGAAGTGCTACAG the binding signal was 2.51 z-score. For GCCAAGAGGAAGTCTACAAA, the binding signal was 2.21 z-score. In the case of GGGATGGGGAAGTGTCATAC, the binding signal is reported as 1.69 z-score. For CAGAAGAGGAAGTTCAGAAG, the binding signal was 3.31 z-score. Work on TGAAAGAGGAAGTGCAACTA yielded a binding signal of 4.24 z-score. Work on AGAGAGAGGAAGTGAACTCC yielded a binding signal of 2.8 z-score. GATAAGAGGAAGTCGTCTGT was tested, and the binding signal was 3.13 z-score. CAAGAAAGGAAGTGATGTGA showed a binding signal of 2.54 z-score. ACACAAAGGAACTGTGCCCC showed a binding signal of 0.85 z-score. AGAAAGAGGAACTGAGAAAA showed a binding signal of 2.36 z-score. With CGAAAAGGGAAGTGGATGCT the binding signal was 2.94 z-score. Sequence TAATTGAGGAACTGCAAATG has a binding signal of 1.21 z-score. Work on CGAACGGGGAAGTGCTAAAC yielded a binding signal of 1.3 z-score. With AAAAAGAGGAAGAGGGGACA the binding signal was 1.82 z-score. In the case of ACAGAAAGGAACTGTGCCCC, the binding signal is reported as 0.558 z-score. TATAAGAGGAAGTCCTCTGT was tested, and the binding signal was 3 z-score. For AGAATGAGGAACTGGGAAAG, the binding signal was 1.42 z-score. AGAAAGAGGAAGTCTCTGCC showed a binding signal of 3.7 z-score. Work on TTGAAGAGGAAGTCTTAGAG yielded a binding signal of 2.58 z-score. In the case of AGAATGAGGAAATGGACATT, the binding signal is reported as 2.29 z-score. TAAGAAGGGAAGTGAACTAA gave a binding signal of 1.61 z-score. Work on GACAAGAGGAACTGCATTCT yielded a binding signal of 0.873 z-score. In the case of CTAATGAGGAACTGGCCCGA, the binding signal is reported as 0.93 z-score. In the case of ATTATAAGGAAGTCAAACTG, the binding signal is reported as 1.71 z-score. Sequence GAAAAGGGGAACTGGGTGCC has a binding signal of 1.9 z-score. GTGAAGAGGAAGTACAAAGA showed a binding signal of 2.74 z-score. With GTGAGAAGGAAGTGAATGCA the binding signal was 2.26 z-score. For TGAAAGGGGAAGTCTTTTTA, the binding signal was 2.95 z-score. For AAAAGGAGGAAGCGGTGAGC, the binding signal was 2.06 z-score. In the case of TGAAAGAGGAAGTGTGTTGA, the binding signal is reported as 3.79 z-score. AAATTAGGGAAGTGGAAGAA gave a binding signal of 2.48 z-score. TGAAAGAGGAAGTGAGGAAG showed a binding signal of 4.03 z-score. AAGGAGAGGAAGTGACCAGC gave a binding signal of 2.68 z-score. TTGCTGAGGAAGTGGATGAT showed a binding signal of 2.12 z-score. Sequence GGAAAGAGGAACTGAAAAGG has a binding signal of 2.28 z-score. With GGAAAGTGGAACTGCTCGCT the binding signal was 0.698 z-score.
